Measured values from PubChem BioAssay AID1745845 (National Center for Advancing Translational Sciences (NCATS), 2022).
“And” between values parts separate entries of the source, which are not always exact repeats. Equal entries are not always repeated. In all, about 360,000 compounds went through this assay and about 2,600 (0.72%) were called active. This list was built around the results that the source calls inconclusive (neither active nor inactive); the mix of calls is not that of the screen. Calls follow the shape of the dose curve; as a rule, active = well fitted inhibition curve with a large enough effect; inconclusive = small, poorly fitted or top-dose-only effect; inactive = no such curve, though single readings can be large or run the other way. Where the call is inconclusive, the potency comes from a doubtful curve fit.

experiment: Primary qHTS for Inhibitors of ATXN expression; details: HEK-293 ATXN2-luciferase reporter, luminescence, 24 h; activity change, negative = inhibition: at 57 µM (top of the series); also: nearly all actives have a fitted effect of over 55% in size
Outline: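 ATXN2-luciferase reporter cells (luciferase flanked by upstream and downstream ATXN2 gene portions) were treated 24 h at 37 °C with compounds at up to 57 uM. SteadyGlo luminescence gave expression; GF-AFC fluorescence gave viability.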
% is scaled to controls: 0 for no effect and ±100 for the full control effect; potency is read from the fitted curve at half-maximal effect; tags tell the direction and shape of the fitted curve.

Row | SMILES | Potency | activity change, negative = inhibition
1 | CCC(=O)Nc1ccc(/C=C(\C(C)=O)C(=O)c2ccccc2)cc1 | inconclusive: 37.7 µM [inhibitor, single point] | –
2 | CNC(=O)c1cc(Oc2ccc(NC(=O)Nc3ccc(Cl)c(C(F)(F)F)c3)cc2)ccn1 | inconclusive: 24.3 µM [inhibitor, partial curve] and active: 25.1 µM and active: 17.8 µM | –
3 | COc1ccc(C(=O)NCCn2cc(SCC(=O)Nc3ccc(F)cc3)c3ccccc32)cc1 | inconclusive: 25.1 µM [inhibitor, single point] | –
4 | O=C(NC1CCN(C(=O)Nc2cccc(Cl)c2)CC1)C1CCCCC1 | – | inactive: -17.4%
5 | COc1ccc(OC)c([N+](=O)[O-])c1C(N)=O | inconclusive: 23.8 µM [inhibitor, partial curve, poor fit] | –
6 | Cc1ccc(-n2nc(C)c3c(C)c(CCC(=O)Nc4ccc(CN5CCCC5)cc4)c(C)nc32)cc1 | inconclusive: 28.2 µM [inhibitor, single point] | –
7 | C=CCn1c(SCC(=O)Nc2ccc3c(c2)OCO3)nnc1-c1ccccc1OC | inconclusive: 25.1 µM [inhibitor, single point] | –
8 | O=S(=O)(NCC(c1ccccc1)N1CCc2ccccc21)c1ccccc1 (configuration not stated) | inconclusive: 39.8 µM [inhibitor, single point] | –
9 | Cc1ccc(C)c(S(=O)(=O)N2CCN(C(=O)C3CCN(c4ncnc5sc(C)c(C)c45)CC3)CC2)c1 | inconclusive: 12.6 µM [inhibitor, partial curve, poor fit] | –
10 | CCCOc1ccc(C2c3c(-c4ccccc4O)n[nH]c3C(=O)N2Cc2cccnc2)cc1 (configuration not stated) | inconclusive: 17.8 µM [inhibitor, single point] | –
11 | CCCCCCn1c(SCC(=O)Nc2cc(C)on2)nc2ccccc2c1=O | – | inactive: 0%
12 | COc1ccccc1-c1cc(C(F)(F)F)nc(S(=O)(=O)CCCC(=O)Nc2cc(C)on2)n1 | inconclusive: 39.8 µM [inhibitor, single point] | –
13 | Cc1ccc(NC(=O)Cn2c(=O)oc3cc(S(=O)(=O)N4CCCCC4)ccc32)c(C)c1 | inconclusive: 25.1 µM [inhibitor, single point] | –
14 | CCOC(=O)c1cc(-c2ccccc2)sc1NC(=O)COC(=O)c1cccc(S(N)(=O)=O)c1 | inconclusive: 33.6 µM [inhibitor, single point] | –
15 | COc1ccc(C(C)=O)cc1CSc1nnc(Nc2ccccc2C)s1 | inconclusive: 20 µM [inhibitor, partial curve] | –
16 | CC(C)OC(=O)c1ccc(NCc2cc(O)ccc2O)cc1Cl | active: 17.8 µM | –
17 | COc1ccc(NC(=O)C2CCCN2S(=O)(=O)c2ccc3c(c2)CCC(=O)N3)c(OC)c1 (configuration not stated) | – | inactive: 7.59%
18 | O=C(O)c1ccc(NCc2ccc3c(c2)OCO3)cc1 | – | inactive: 4.46%
19 | O=c1oc2ccccc2cc1-c1nc2c(s1)CCCC2 | inconclusive: 22.4 µM [inhibitor, single point] | –
20 | C=CCC[C@@H](Cc1ccc(F)cc1)C(=O)OC[C@@H]1CCCN1C(=O)[C@H](CC=C)CC(=O)N[C@H](CO)Cc1ccccc1 | inconclusive: 39.8 µM [inhibitor, single point] | –
21 | CCN1CCCC1CNc1ncnc2c1[nH]c1ccc(Cl)cc12 (configuration not stated) | inconclusive: 28.2 µM [inhibitor, partial curve, poor fit] | –

Row | SMILES | Potency | activity change, negative = inhibition
22 | COc1ccc(NC(=O)CSc2nc3c(c(=O)n2C)SCC3)cc1OC | – | inactive: -3.83%
23 | CNC1CCC(N(Cc2cccc(-c3ccncc3)c2)C(=O)c2sc3c(F)ccc(F)c3c2Cl)CC1 (configuration not stated) | inconclusive: 27.3 µM [inhibitor, single point] | –
24 | Cc1cc(C)cc(NC(=O)N2CCC(c3nc4ccccc4o3)CC2)c1 | inconclusive: 17.8 µM [inhibitor, partial curve, poor fit] | –
25 | O=C(CNc1ccccc1)N/N=C/c1c(O)ccc2ccccc12 | active: 7.08 µM | –
26 | COc1ccc(/C=C2\SC(=S)N(CCCC(=O)N3CCCCC3CCO)C2=O)cc1 (configuration not stated) | inconclusive: 25.1 µM [inhibitor, partial curve] | –
27 | CCOc1ccccc1NC(=O)N1CCc2c(sc3c2CCCC3)C1c1ccccc1 (configuration not stated) | – | inactive: -21.4%
28 | O=C1CCCN2N=C(SCC(=O)Nc3cccc(C(F)(F)F)c3)SC2=N1 | inconclusive: 2.51 µM [inhibitor, partial curve] | –
29 | Cc1c(C(=O)NN)sc(-c2ccccc2)c1C#N | inconclusive: 14.1 µM [inhibitor, partial curve, poor fit] | –
30 | Cn1cnc([N+](=O)[O-])c1Oc1ccc2ccccc2c1 | inconclusive: 14.1 µM [inhibitor, partial curve] | –
31 | C=CC(=O)Nc1cc2c(Nc3ccc(F)c(Cl)c3)ncnc2cc1C#CC(C)(C)N1CCN(C)CC1 | inconclusive: 34.3 µM [inhibitor, single point] | –
32 | CC1(c2nnc(-c3ccccc3)o2)CC(c2c(Cl)cccc2Cl)=NO1 (configuration not stated) | inconclusive: 15.8 µM [inhibitor, partial curve, poor fit] | –
33 | Cc1cc(C)cc(NC(=S)NCCSc2ccc(Cl)cc2)c1 | inconclusive: 37.7 µM [inhibitor, single point] | –
34 | CC(C)C[C@H]1CNC(=S)N1C[C@H]1CCCN1C[C@H](Cc1ccc(O)cc1)N1C[C@H](CC(C)C)N(CC2CCCCCC2)C1=S | inconclusive: 8.91 µM [inhibitor, partial curve] | –
35 | Cc1[nH]n(-c2ccccc2)c(=O)c1N=Nc1ccc(C(N)=O)cc1 | inconclusive: 7.52 µM [inhibitor, partial curve, poor fit] | –
36 | CCOc1ccccc1NC(=O)CSC1=Nc2ccccc2C2=NC(CC(=O)NCc3ccc4c(c3)OCO4)C(=O)N12 (configuration not stated) | – | inactive: -19%
37 | CC1=CC(C)(C)Nc2ccc(OC(=O)CN3C(=O)CCC3=O)cc21 | inconclusive: 39.8 µM [inhibitor, single point] | –
38 | CCc1ccc(S(=O)(=O)NCc2ccc(C(=O)NCCN(Cc3ccccc3)C(C)C)cc2)cc1 | inconclusive: 25.1 µM [inhibitor, single point] | –
39 | O=C(C1=C[C@H](c2csc3ccccc23)C[C@H](OCc2ccc(CO)cc2)O1)N1CCCCCCC1 | – | inactive: -25.2%
40 | C=CCn1c(NC(C)c2cc(Cl)ccc2O)nc2ccccc21 (configuration not stated) | inconclusive: 35.5 µM [inhibitor, single point] | –
41 | O=C(Nc1ccccc1)c1nc[nH]c1C(=O)NCCCCNC(=O)c1[nH]cnc1C(=O)Nc1ccccc1 | – | inactive: 2.29%
42 | CC(C)=CCC/C(C)=C/CNC(=O)C[C@H]1C[C@H](C(=O)N2CCOCC2)[C@@]2(CCC3CCCC3)c3[nH]c4cc(CCC(=O)N(C)C)ccc4c3CCN2C1=O | inconclusive: 39.8 µM [inhibitor, single point] | –

Row | SMILES | Potency | activity change, negative = inhibition
43 | C=CCC[C@H](Cc1ccc(F)cc1)C(=O)OC[C@@H](Cc1c[nH]c2ccccc12)NC(=O)[C@H](CC=C)CC(=O)N(CCO)Cc1ccccc1 | inconclusive: 39.8 µM [inhibitor, single point] | –
44 | Cc1ccc(S(=O)(=O)NCC(Nc2cccc(Cl)c2)c2ccccc2)cc1 (configuration not stated) | inconclusive: 31.6 µM [inhibitor, single point] | –
45 | O=c1[nH]c(=S)[nH]c(O)c1/C=C1\C=Nc2ccccc21 | inconclusive: 28.2 µM [inhibitor, single point] | –
46 | CCc1cc(=O)oc2c3c(cc(OCC(=O)Nc4cccnc4)c12)OC(C)(C)CC3 | inconclusive: 31.6 µM [inhibitor, partial curve, poor fit] | –
47 | CC1CCN(S(=O)(=O)c2ccc(NC(=O)CN3CCCCCC3)cc2)CC1 | – | inactive: -23.5%
48 | COc1ccc(-c2noc(CSc3nc(N)cc(=O)[nH]3)n2)cc1 | inconclusive: 14.1 µM [inhibitor, partial curve, poor fit] | –
49 | CN1CCN(c2ccc(S(=O)(=O)N3CCCCC3)cc2NC(=O)/C=C/c2ccc(Cl)c([N+](=O)[O-])c2)CC1 | active: 22.4 µM | –
50 | Cc1cc(NC(=O)c2ccc(Cl)cc2Cl)no1 | – | inactive: -0.879%
51 | Cc1ccc(S(=O)(=O)Nc2cccc3cccnc23)c([N+](=O)[O-])c1 | active: 10 µM | –
52 | Cc1cc(C)cc(C(=O)NCC(=O)N2CCN(C(c3ccccc3)c3ccccc3)CC2)c1 | – | inconclusive: -41.2% [inhibitor]
53 | O=S(=O)(c1ccccc1)N1CCN(c2nc(-c3cccnc3)nc3ccccc23)CC1 | inconclusive: 15.8 µM [inhibitor, single point] | –
54 | CSc1ncc(Cl)c(C(=O)Nc2c(C(=O)c3ccc(C)c(F)c3)oc3ccccc23)n1 | – | inactive: 2.31%
55 | CC1(C(=O)NS(=O)(=O)C2CC2)CCCN(C(=O)c2c(F)cccc2F)C1 (configuration not stated) | – | inactive: 4.11%
56 | COc1ccccc1N1CCN(C(=O)c2ccc(CN3CCc4ccccc4C3)cc2)CC1 | – | inactive: -5.65%
57 | CNC(=O)C1C(=S)NC(N)=C(C#N)C1c1ccccc1 (configuration not stated) | – | inactive: -14.3%
58 | N=c1n(CCN2CCCCC2)c2ccccc2n1CC(=O)c1ccc(Cl)c(Cl)c1 | inconclusive: 12.6 µM [inhibitor, partial curve, poor fit] | –
59 | COc1ccc(NC(=O)N2CCN(c3ccc([N+](=O)[O-])cc3)CC2)cc1OC | inconclusive: 12.6 µM [inhibitor, partial curve, poor fit] | –
60 | Cc1sc2nc3c(C(=O)N4CCCC4)cc(C(=O)c4ccccc4O)cn3c(=O)c2c1C | – | inactive: -31.2%
61 | Cc1nc2ccccn2c1C(=O)N/N=C/c1ccccc1[N+](=O)[O-] | – | inactive: -4.52%
62 | COc1ccc(-c2ccc(C(=O)NCc3ccc(F)c(F)c3)c3occc23)c(C)c1 | inconclusive: 15.8 µM [inhibitor, partial curve, poor fit] | –
